# Experimental data: paper PMC4336329 (PLoS ONE, 2015)
# Out of some 310,000 compounds screened, about 2,200 (0.71%) showed an effect of 50% or more. The effect is printed as a negative number. The list shows a part of the results.
# Biological target: human ether-à-go-go-related gene (hERG) potassium channel (human, UniProt Q12809)
# Assay: primary screen, population patch clamp on CHO cells stably expressing hERG
# Sequence of human ether-à-go-go-related gene (hERG) potassium channel (Q12809 whole entry, looked up): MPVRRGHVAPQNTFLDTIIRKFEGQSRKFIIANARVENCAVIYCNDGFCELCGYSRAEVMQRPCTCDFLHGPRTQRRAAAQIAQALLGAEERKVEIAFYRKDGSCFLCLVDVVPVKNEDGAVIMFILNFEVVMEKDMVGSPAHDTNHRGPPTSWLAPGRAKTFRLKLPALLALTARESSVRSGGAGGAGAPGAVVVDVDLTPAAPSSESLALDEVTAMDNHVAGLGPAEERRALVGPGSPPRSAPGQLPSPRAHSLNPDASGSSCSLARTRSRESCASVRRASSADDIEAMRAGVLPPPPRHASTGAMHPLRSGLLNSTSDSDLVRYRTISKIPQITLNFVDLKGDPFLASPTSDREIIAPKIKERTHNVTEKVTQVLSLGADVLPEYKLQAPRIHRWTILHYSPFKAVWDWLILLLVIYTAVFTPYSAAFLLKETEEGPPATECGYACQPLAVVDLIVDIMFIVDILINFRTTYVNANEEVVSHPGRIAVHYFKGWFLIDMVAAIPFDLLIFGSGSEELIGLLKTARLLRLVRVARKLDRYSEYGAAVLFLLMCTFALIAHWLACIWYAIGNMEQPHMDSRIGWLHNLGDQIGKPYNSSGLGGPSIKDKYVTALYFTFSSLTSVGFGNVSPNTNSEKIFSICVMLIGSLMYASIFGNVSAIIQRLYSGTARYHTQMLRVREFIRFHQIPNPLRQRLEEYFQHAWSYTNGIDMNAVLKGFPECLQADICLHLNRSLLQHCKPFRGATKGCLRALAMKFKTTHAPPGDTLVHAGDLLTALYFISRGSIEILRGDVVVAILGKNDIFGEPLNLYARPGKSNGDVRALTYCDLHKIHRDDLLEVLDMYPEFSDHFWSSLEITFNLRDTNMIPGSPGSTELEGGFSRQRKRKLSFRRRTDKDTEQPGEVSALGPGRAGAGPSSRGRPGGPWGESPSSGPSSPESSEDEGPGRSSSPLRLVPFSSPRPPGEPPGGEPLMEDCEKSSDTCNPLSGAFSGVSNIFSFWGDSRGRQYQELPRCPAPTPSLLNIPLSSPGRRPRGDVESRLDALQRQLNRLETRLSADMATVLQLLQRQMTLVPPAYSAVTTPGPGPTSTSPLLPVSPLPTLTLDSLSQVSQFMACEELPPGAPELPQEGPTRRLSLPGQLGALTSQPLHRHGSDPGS
row,Compound,"hERG current change (%, negative = inhibition) at 1uM"
1,COc1ccccc1NC(=O)c1cc2ccc(O)cc2o/c1=N\O,2.95%
2,Cn1nc(C(C)(C)C)cc1C(=O)Sc1cccc(Br)c1,2.73%
3,COc1cccc(CNC(=O)C2CCN(S(=O)(=O)c3ccc4c(c3)CCC(=O)N4)CC2)c1,17.5%
4,CS(=O)(=O)N1CCN(C2C3CC4CC(C3)CC2C4)CC1.O=C(O)C(=O)O (stereo not shown),16.5%
5,C=C(C)CSc1nc(N)cc(=O)[nH]1,2.51%
6,COc1ccc(N2CCN(C(=N)/C(C(C)=O)=C(\C)O)CC2)cc1,19.3%
7,Cc1ccc(NC(=O)CNC(=O)c2ccccc2F)cc1Cl,2.42%
8,Cc1cccc(C(=O)NNC(=O)c2c(-c3ccccc3Cl)noc2C)c1O,10.6%
9,O=C1N(c2ccccc2)C[C@@H]2C[C@@H](c3cccc4c3OCO4)N3CCC[C@@]123,23.3%
10,Cc1cc(Cl)ccc1NC(=O)CCCN1C(=O)CCC1=O,11.3%
11,CCCCn1c(N)c(N(C)C(=O)C2CCCC2)c(=O)[nH]c1=O,9.28%
12,COc1ccc(CSc2nncn2C)cc1F,3.27%
13,NC(=O)CC(NC(=O)Cc1cccc2ccccc12)c1ccc(N2CCC(Cc3ccccc3)CC2)c([N+](=O)[O-])c1 (stereo not shown),12.6%
14,Cc1cc(C(=O)OCC(=O)Nc2nc(-c3ccccc3)cs2)c(C)o1,13.9%
15,O=C(O)/C=C/c1cn(-c2ccccc2)nc1-c1cccs1,15.4%
16,Cc1cc(-n2nnc3ccccc32)nc2ccccc12,11.2%
17,C[C@]12C(=O)N(c3ccccc3)C(=O)N1[C@@H]1c3ccccc3OC[C@@H]1[C@H]2c1ccccc1,11.3%
18,CN(C)S(=O)(=O)c1ccc(N=Cc2c(C(F)(F)F)[nH][nH]c2=O)cc1,18.6%
19,O=C(c1ccco1)N1CCCN(C(=O)c2ccco2)CC1,8.78%
20,CCc1nc(Nc2cc(OC)ccc2OC)c2oc3ccccc3c2n1.Cl,7.8%
21,CSc1ccc(CNC(=O)C2CCC(=O)N(Cc3cccc(F)c3)C2)cc1 (stereo not shown),-23.4%
22,Cc1nn(-c2ccccc2)c(N)c1Sc1ccc([N+](=O)[O-])cc1,-16.3%

row,Compound,"hERG current change (%, negative = inhibition) at 1uM"
1,COCCNC(=O)COc1ncnc2ccc(Br)cc12,7.06%
2,CCN1C(=O)N[C@H](c2ccc(Br)cc2)C(C(=O)OC)=C1C,12.6%
3,O=C(NNC(=O)C12CC3CC(CC(O)(C3)C1)C2)c1csc(N2CCOCC2)n1,15.6%
4,CCc1cc2c(N3CCCCC3)ncnc2s1.Cl,5.54%
5,CCOC(=O)c1ccc(N=c2sc(C(=O)OC)cc(=O)n2Cc2ccc3c(c2)OCO3)cc1,13.5%
6,Cc1c(C(=O)N2CCC(Cc3ccccc3)CC2)cccc1[N+](=O)[O-],1.11%
7,COc1ccc(OCC2CCCN(Cc3nc(CC4CC4)no3)C2)cc1 (stereo not shown),-0.786%
8,O=C(c1ccc2ccccc2c1)C1CCCN(C(=O)CCn2cnnn2)C1 (stereo not shown),3.91%
9,CC1CCN(c2oc(-c3ccccc3F)nc2C#N)CC1,0.0562%
10,C=CCn1c(CCNC(=O)c2cccs2)nnc1SCC(=O)Nc1cccc(F)c1,-9.74%
11,Cc1ccc(NS(=O)(=O)c2c(C)nc3sccn3c2=O)cc1,0.642%
12,O=C(O)C1CCCCC1C(=O)NCCc1c[nH]c2ccccc12 (stereo not shown),13.5%
13,COC(=O)c1ccc(N2CCOCC2)c(NC(=O)c2ccc3c(c2)OCCO3)c1,6.75%
14,C=CCn1nnc2sc3c(c2c1=O)CCC(C)C3 (stereo not shown),17.8%
15,Cc1c(NS(=O)(=O)c2cccc(C(=O)NCc3ccccc3)c2)c(=O)n(-c2ccccc2)n1C,12.4%
16,O=C(N/N=C/c1ccc(Cl)c([N+](=O)[O-])c1)c1cc(-c2ccc3c4c(cccc24)CC3)n[nH]1,8.79%
17,COc1ccc(NC(=O)C(=O)NNC(=O)c2cccs2)c(OC)c1,5.07%
18,CC(C)CNC(=O)CSc1nc2scc(-c3ccccc3)c2c(=O)[nH]1,2.46%
19,CCOC(=O)/C(C#N)=C/c1c(N2CCN(C)CC2)nc2ccccn2c1=O,10.3%
20,CCn1c(Cc2ccccc2)nnc1SCC(=O)NC1CC1,17.3%
21,O=C(Cn1cc2c(n1)CCCC2)N1CCc2ccccc21,0.242%
22,Cc1nc(Nc2ccc(Cl)cc2Cl)sc1C(=O)Nc1ccccc1,7.93%

row,Compound,"hERG current change (%, negative = inhibition) at 1uM"
1,CS(=O)(=O)c1ccc(Cl)c(NC(=O)C2CC(=O)N(Cc3ccccc3)C2)c1 (stereo not shown),1.34%
2,O=C(OCCN1C(=O)c2ccccc2C1=O)C1CC(O)CN1S(=O)(=O)c1ccc(Cl)cc1 (stereo not shown),7.01%
3,CCOC(=O)C1=C(CSc2nc3ccccc3s2)NC(=O)NC1c1ccc(OC)cc1 (stereo not shown),14.3%
4,O=C1CCCN1c1ccc(S(=O)(=O)N2CCN(c3ccccn3)CC2)cc1,14.8%
5,Cc1ccc(-c2nn(-c3ccccc3)cc2CN(Cc2ccccc2)C(=O)c2ccco2)o1,0.914%
6,COc1cccc(/C=N/n2cnc3c(cnn3-c3ccccc3)c2=O)c1,10.9%
7,Cc1cc(/C=N/N2CCN(C)CC2)c(C)n1-c1ccccc1F,8.21%
8,C=CCN1C(=O)C(O)(CC(=O)c2ccc(Cl)cc2)c2ccccc21 (stereo not shown),15.5%
9,CCOC(=O)c1ccc(NC(=O)N2CCOCC2)cc1,11.2%
10,CCOC(=O)C(=O)NNc1ccccc1C,1.85%
11,COc1ccccc1CN1CCN(C(c2ccccc2)c2ccccc2)CC1.O=C(O)C(=O)O,-13.6%
12,CC(OC(=O)c1ccc(Cl)nc1)C(=O)NC(C)(C)C (stereo not shown),12.2%
13,O=C(CN(C(=O)c1ccccc1Cl)N1C(=O)C2C3C=CC(C3)C2C1=O)c1cccs1 (stereo not shown),6.38%
14,c1ccc(OCc2nn3c(Cn4nnc5ccccc54)nnc3s2)cc1,-7.64%
15,O=C(O)C1C2CCC(O2)C1C(=O)NCc1ccccc1Br (stereo not shown),17.4%
16,CCOc1ccccc1N1C(=O)CC(Sc2nccc(C)n2)C1=O (stereo not shown),12.3%
17,COc1ccc(C2Nc3ccccc3C(=O)N2Cc2ccco2)cc1COc1ccc(NC(C)=O)cc1 (stereo not shown),9.08%
18,COc1cc(SC#N)ccc1N=Cc1c(C)[nH]n(-c2ccc(C)c(C)c2)c1=O,1.25%
19,Cc1cc(C(F)(F)F)n(-c2nc(C(=O)Nc3cccnc3)cs2)n1,2.7%
20,Cc1ccc(N=Cc2cc(Br)cc(Cl)c2O)cc1,4.37%
21,Cc1ccc(NCc2nc(SCC(=O)Nc3ccccc3)n[nH]2)cc1,20%
22,CCOC(=O)N1CCC(Nc2ncnc3c2cnn3-c2ccccc2)CC1,4.01%

row,Compound,"hERG current change (%, negative = inhibition) at 1uM"
1,CCOC(=O)CSc1nc(-c2ccc3c(c2)OCO3)ccc1C#N,6.46%
2,Cn1cc(C(=O)c2ccc(Cl)cc2)cc1-c1nc2ccccc2n1C,0.332%
3,COc1ccccc1CNC(=O)CCc1nc2ccccc2c(=O)[nH]1,4.98%
4,CSc1ccc(/C=N/NC(=O)COc2ccc(Br)cc2Cl)cc1,13%
5,O=C(/C=C/c1ccc(F)cc1)NC(Cc1c[nH]c2ccccc12)C(=O)O (stereo not shown),8.41%
6,O=c1c2ccccc2sn1-c1cc(S(=O)(=O)N2CCOCC2)ccc1N1CCCC1,7.15%
7,CC1CC2(CCCC2)N(C(=O)N(C)C)c2ccc(F)cc21 (stereo not shown),10.1%
8,O=Cc1ccccc1OCCN1CCCC1=O,9.45%
9,COc1ccccc1CNC(=O)c1cn(C)c2ccc(S(=O)(=O)N3CCCCC3)cc2c1=O,14.1%
10,CN(C)S(=O)(=O)c1ccc(C(=O)NCc2nnc(SCC(=O)N3CCCCCC3)o2)cc1,14.8%
11,CCOC(=O)C1=C(c2ccc(OC)cc2)C(=O)c2ccccc2C1=O,15.6%
12,COc1ccc2cc(C(=O)NCc3ccccc3)c(=O)oc2c1,16.1%
13,COC(=O)c1ccc(OC)c(-c2c(OC)cc(OC)cc2OC)c1,7.38%
14,CCOC(=O)c1c(C=O)c2ccccc2n1CC,8.61%
15,Cc1ccc(C(=O)N(C)c2ccc(OCC(=O)N3c4ccc(C)cc4C4CN(C)CCC43)cc2)cc1.Cl (stereo not shown),0.0382%
16,O=C(c1cc(S(=O)(=O)N2CCCCC2)c(Cl)cc1N1CCOCC1)N1CCOCC1,2.03%
17,COc1ccccc1/C=C/C=N/n1c(-c2ccccc2)n[nH]c1=S,1.14%
18,CSc1ccc(S(=O)(=O)N2CCC(C(=O)NCc3ccccn3)CC2)cc1,12.3%
19,Cc1ccc(C)c(NC(=O)CN(C)C(=O)CCN2C(=O)c3ccccc3C2=O)c1,7.88%
20,CCOC(=O)/C=C1\SCC(=O)N1CC(=O)NCc1ccc(OC)c(OC)c1,13.3%
21,O=C(CN1CCN(S(=O)(=O)N2CCCCC2)CC1)Nc1ccc(Br)cc1,2.87%
22,CC1(C)C2CCC1(CS(=O)(=O)N1CCC(C(=O)O)CC1)C(=O)C2 (stereo not shown),7.67%
